Assay results reported in article PMC3437627 (Bioorganic & medicinal chemistry letters, 2008).

Assays:
[1] = test system: nAChRs mediating nicotine-evoked [3H]DA release; type: cell-based, rat
[2] = test system: nAChRs mediating nicotine-evoked [3H]DA release; conditions: cited from earlier work

With OCCCc1ccc[n+](CCCCCc2cc(CCCCC[n+]3cccc(CCCO)c3)c(CCCCC[n+]3cccc(CCCO)c3)cc2CCCCC[n+]2cccc(CCCO)c2)c1.[Br-].[Br-].[Br-].[Br-] [Compound 11j] the “inhibition of S(−)-nicotine evoked [3H]DA overflow” value ([1]; rat striatal slices, nicotine 10 µM, Fig 2) was “concentration-dependent manner” and the IC50 ([1]; read-out: IC50, inhibition of nicotine-evoked [3H]DA release, full concentration response 1 nM to 10 µM, 10 µM nicotine) was 3 nM.
In the case of CCCCCCCCCCCC[n+]1cccc(C2CCCN2C)c1.[I-] (stereo not drawn) [NDDNI, N-n-dodecylnicotinium iodide], the “selectivity (DA overflow vs [3H]nicotine binding to the high affinity nAChR)” value ([2]; ref 16b) is given as 15 fold.
For CCCCCCCC[n+]1cccc(C2CCCN2C)c1.[I-] (stereo not drawn) [NONI, N-n-octanylnicotinium iodide], the “potency relative to NDDNI (fold less potent)” value ([2]; nicotine-evoked DA overflow, ref 16b) is given as 70 fold.
For CNC1(C)C2CCC(C2)C1(C)C (stereo not drawn) [mecamylamine], the “inhibition of nicotine-evoked DA release” value [2] is given as “completely inhibited” and the “inhibition of S(−)-nicotine-evoked [3H]DA fractional release” value ([1]; rat striatal slices, 100 nM NMPi, MEC positive control, two-way ANOVA) is given as “Significant inhibition”.
